Hit rate of the full screen: of about 310,000 compounds, about 2,200 (0.71%) showed an effect of 50% or more. Effects have a minus sign here. The list shows a part of the results.
The compounds below were run against human ether-à-go-go-related gene (hERG) potassium channel (human, UniProt Q12809) (assay: primary screen, population patch clamp on CHO cells stably expressing hERG).
Chain of human ether-à-go-go-related gene (hERG) potassium channel (Q12809 whole entry, looked up): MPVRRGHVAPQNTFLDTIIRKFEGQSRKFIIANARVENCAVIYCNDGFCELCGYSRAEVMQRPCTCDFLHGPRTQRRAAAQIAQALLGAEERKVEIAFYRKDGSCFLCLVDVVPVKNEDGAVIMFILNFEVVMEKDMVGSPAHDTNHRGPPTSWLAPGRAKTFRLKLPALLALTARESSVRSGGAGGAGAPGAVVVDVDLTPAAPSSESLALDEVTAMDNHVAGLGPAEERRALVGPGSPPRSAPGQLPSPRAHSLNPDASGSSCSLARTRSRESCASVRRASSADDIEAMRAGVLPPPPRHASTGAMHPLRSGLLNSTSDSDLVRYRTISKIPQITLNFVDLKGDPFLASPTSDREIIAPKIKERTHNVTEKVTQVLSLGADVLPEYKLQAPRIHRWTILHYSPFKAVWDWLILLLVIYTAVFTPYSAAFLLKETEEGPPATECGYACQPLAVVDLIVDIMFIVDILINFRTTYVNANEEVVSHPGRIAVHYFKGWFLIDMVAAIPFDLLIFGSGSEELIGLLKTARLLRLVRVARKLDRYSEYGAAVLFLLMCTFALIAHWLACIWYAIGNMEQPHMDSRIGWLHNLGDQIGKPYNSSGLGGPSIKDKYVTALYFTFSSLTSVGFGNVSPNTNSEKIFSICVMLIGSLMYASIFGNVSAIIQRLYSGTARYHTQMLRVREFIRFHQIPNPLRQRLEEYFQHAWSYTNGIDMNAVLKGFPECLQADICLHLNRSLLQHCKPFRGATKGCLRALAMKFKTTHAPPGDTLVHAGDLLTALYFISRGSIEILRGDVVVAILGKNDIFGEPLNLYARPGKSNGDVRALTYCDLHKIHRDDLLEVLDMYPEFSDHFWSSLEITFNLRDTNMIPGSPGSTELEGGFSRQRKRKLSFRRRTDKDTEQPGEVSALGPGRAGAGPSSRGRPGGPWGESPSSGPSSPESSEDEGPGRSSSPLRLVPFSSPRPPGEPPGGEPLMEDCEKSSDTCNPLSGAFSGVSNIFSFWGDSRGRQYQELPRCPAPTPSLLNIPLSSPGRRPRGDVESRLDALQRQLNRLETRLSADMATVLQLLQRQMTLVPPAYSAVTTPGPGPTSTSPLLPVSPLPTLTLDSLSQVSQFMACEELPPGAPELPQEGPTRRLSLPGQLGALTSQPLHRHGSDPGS

Structure (SMILES) | hERG current change (%, negative = inhibition) at 1uM [%]
Cc1nc(Nc2ccc3c(c2)OCCO3)c2oc3ccccc3c2n1 | 3.23
COC(=O)C1=C(c2ccc3ccccc3c2)C[C@@H]2CC[C@H]1N2C(=O)NCCO | 16.3
C[C@H](NC(=O)[C@@H]1CSC2c3ccccc3C(=O)N21)C(=O)NCc1c(F)cccc1Cl (some centres unmarked) | 7.02
COc1ccccc1N1CCN(C(=O)C2c3ccccc3Oc3ccccc32)CC1 | 3.6
COc1ccc(NC(C)=O)cc1NC(=O)c1ccc(Cl)cc1 | 1.2
O=C1COc2ccc(C(=O)COC(=O)c3sc4ccccc4c3Cl)cc2N1 | 4.07
Cc1cc(C(=O)COC(=O)Cc2n[nH]c(=O)c3ccccc23)c(C)n1-c1ccc2c(c1)OCO2 | 14.5
COc1ccc(S(=O)(=O)N2CCC(C(=O)NCc3cccnc3)CC2)cc1C | 11.3
COc1ccc(CN2CCN(C(=O)c3cccc4ccccc34)CC2)cc1Br | 9.47
O=C(CCSc1nnc(-c2ccco2)o1)N1CCOCC1 | -4.27
Cc1cc(NC(=O)c2cccs2)ccc1NC(=O)Cc1ccccc1 | 7.86
COc1ccc(-c2noc(CCC(=O)N3CCN(Cc4ccccc4)CC3)n2)cc1 | -9.14
COc1ccccc1N1C(=O)C2C(c3ccccc3F)NN(C(=O)c3ccc(C)cc3)C2C1=O (centres unmarked) | 3.2
COc1ccc(CSC2=NCCN2)cc1Br | 10.8
CC(C)(C)CN1C(=O)C(=O)NC[C@@H]1CCCCN | 17.2
Cn1c(CNc2ccccc2)cc(=O)n(C)c1=O | 10.3
COC1CCCCC1Nc1cc(C)ccc1C (centres unmarked) | 13.1
Nc1nnc(SCC(=O)Nc2cccc3ccccc23)s1 | 14.5
CCOc1ccccc1-c1nc(-c2ccncc2)no1 | 0.802
CC(C)C[C@H](NC(=O)c1nc[nH]c1C(=O)NCc1ccc(CNC(=O)OC(C)(C)C)cc1)C(=O)OC(C)(C)C | 10.6
Cc1ccc(-c2nn3c(C)nnc3c3ccccc23)cc1S(=O)(=O)NCCN1CCOCC1 | -3.77
CC(=O)c1ccc(NC(=O)CSc2nc(C)cc(C)c2C(N)=O)cc1 | 8.07
O=C(CC12CC3CC(C1)CC(CC(=O)N1CCCC1)(C3)C2)N1CCCC1 | -0.18

Structure (SMILES) | hERG current change (%, negative = inhibition) at 1uM [%]
COC(=O)c1nc2nc(C)cc(C(F)(F)F)n2n1 | 9.06
COc1ccc(CCNS(=O)(=O)c2cc3c(cc2C)NC(=O)CO3)cc1OC | 12.4
O=C(NCc1cccnc1)NC1CC(=O)N(c2ccc3c(c2)OCCO3)C1 (centres unmarked) | 12.8
COc1ccccc1N1CCN(C(=O)c2cc(-c3ccccc3)on2)CC1 | 16.1
CCOC(=O)c1ccc(N)cc1 | 16.1
COc1cccc(C(=O)NCC2(c3ccccc3)CCCC2)c1 | 0.524
CCN(CC)CC.CCOc1ccccc1-n1c(=S)sc2c(=O)n(-c3ccc(C)cc3)c(=S)[nH]c21 | 15.9
COc1cc(C(=O)OCCN2CCOCC2)ccc1O | 4.59
COCC(=O)OCC(=O)Nc1cc(C(C)(C)C)nn1-c1ccccc1 | 13.6
COc1ccccc1NC(=O)CN1CCN(c2ccc(Cl)cc2)CC1 | -3.43
COCCOC(=O)c1c(NC(=O)CNCc2ccco2)sc(C(N)=O)c1C | 5.76
Cc1cc(=O)n2c(nc3ccccc32)[nH]1 | 3.11
CC(NC(=O)Cc1ccsc1)c1ccc(F)cc1 (centres unmarked) | 12.8
O=C(NCC1CCN(c2ccc(S(=O)(=O)N3CCOCC3)cc2)CC1)Nc1ccccc1 | 17.9
COc1ccc(Cl)cc1NS(=O)(=O)c1c(C)[nH]c(C)c1C(=O)N1CCCCC1 | 9.72
C=CCNC(=S)NNc1ncnc2sc3c(c12)CC(C)(C)OC3 | 2.71
COc1ccccc1OCC(=O)N/N=C/c1c(O)ccc2ccccc12 | 8.41
O=C(NN=C1CCN(Cc2ccccc2)CC1)c1ccccc1 | 7.93
Cc1ccc(OCC(=O)N2CCc3ccccc3C2)c(Br)c1 | 13.6
CC(C)(C)NC(=O)CSc1nnc(Cc2ccc3c(c2)OCO3)n1C1CCCCC1 | 13
CCC(C)Sc1cc(-c2nc3ccccn3c2NC2CCCCC2)ccc1OC.O=C(O)C(F)(F)F (centres unmarked) | 5.67
CSCCC(NC(N)=O)C(=O)Nc1ccc2ccccc2c1 (centres unmarked) | 18.9
OC(COC1CCCCC1)CN1CCN(c2ccccc2)CC1 (centres unmarked) | -3.58

Structure (SMILES) | hERG current change (%, negative = inhibition) at 1uM [%]
COc1cccc(NC(=O)c2csc3c2CCCC3)c1 | 23.4
COc1cc(C(=O)NCc2cn3ccccc3n2)cc(OC)c1OC | 8.31
O=C(N=C1SC2CS(=O)(=O)CC2N1c1cc(Cl)ccc1Cl)C1CCCO1 (centres unmarked) | -0.486
CCOC(=O)CSc1nnc(Cc2ccccc2)n1CC1CCCO1 (centres unmarked) | 4.04
COC(=O)Cc1c(O)ccn(Cc2cccc3ccccc23)c1=O | 7.7
C=CCNC(=O)C(=O)c1cccn1-c1ccsc1C(=O)OC | 9.95
COC(=O)CSc1nc(NC(C)C)nc(N(C)C)n1 | 7.13
COc1cc(/C=N/Nc2nc3ccccc3[nH]2)cc(OC)c1O | -8.16
O=C(Nc1cc2c3c(c1)CC(=O)N3CCC2)C1CC1 | 9.06
CCOC(=O)C1C(=O)CC(C)(O)C(C(=O)OCC)C1c1ccc([N+](=O)[O-])cc1 (centres unmarked) | 0.692
CCN(CC)C(=O)C1CCN(CC2CC=CCC2)CC1 (centres unmarked) | 5.06
O=C(NCCc1ccc(F)cc1)c1ccc2c(=O)n3c(nc2c1)CCC3 | -10.9
COc1ccc2oc(C(=O)Nc3nc4ccc(S(C)(=O)=O)cc4s3)c(C)c2c1 | 15.9
CCNc1nc(NCC)n2c(SCC(=O)Nc3ccc(OC)c(OC)c3)nnc2n1 | 12.9
c1cc(CNCC2CCCO2)ccn1 (centres unmarked) | 20.9
CCCCn1c(N)c(N(CC(C)C)C(=O)C2CCCO2)c(=O)[nH]c1=O (centres unmarked) | 17.2
COc1cc(C2c3c(oc4ccccc4c3=O)C(=O)N2c2ccc(C)cn2)ccc1O (centres unmarked) | -0.622
COc1cc(OC)c(N(C)C(=O)CCNC(=O)Cn2cnc3ccccc3c2=O)cc1Cl | -12.5
Cc1onc(-c2c(F)cccc2Cl)c1C(=O)OCC(=O)NC(N)=O | 10.6
CC(C)[C@H](NC(=O)c1ccccc1Cl)C(=O)OCC(=O)NC(=O)NC1CCCC1 | 3.98
O=C(NC(=S)Nc1cccc(Cl)c1N1CCCCC1)c1cccs1 | 18.2
O=C(CNc1cc(S(=O)(=O)N2CCCC2)ccc1OCC(F)(F)F)Nc1cccc(C(F)(F)F)c1 | 5.75
O=c1cc(NS(=O)(=O)c2ccccc2)nc(SCc2ccccc2Cl)[nH]1 | 8.22

Structure (SMILES) | hERG current change (%, negative = inhibition) at 1uM [%]
Cc1cccc(C)c1NC(=O)CSc1nnnn1-c1ccc(C(=O)O)cc1 | -12.7
O=C(CN1CCN(C(c2ccccc2)c2ccccc2)CC1)NC(=O)NCc1ccco1 | 3.5
CCN(CC)C(=O)CSc1nc2ccccc2o1 | 13.3
CCCCCCCNC(=O)C1(CC2CC(c3ccc(Cl)cc3)=NO2)CCN(C(=O)OC(C)(C)C)CC1 (centres unmarked) | 18.9
COCC(C)n1c(C)cc(C(=O)COC(=O)/C=C/c2cccc(F)c2)c1C (centres unmarked) | -16.4
COc1ccc(S(=O)(=O)N(C)c2ccc(C(=O)Nc3ccccc3C(=O)N3CCOCC3)cc2)cc1 | 4.72
COc1ccc(CNC(=O)C/C(C)=N/NC(=O)COc2ccc(Br)cc2)cc1 | -7.04
COC(=O)c1ccccc1S(=O)(=O)N1CCC(C(=O)OCC(=O)NCC(F)(F)F)CC1 | -0.155
COc1cccc(CNC(=O)c2ccc(OC)c(S(=O)(=O)NC3CCCC3)c2)c1 | 2.45
O=C(/C=C/c1cccs1)c1cc(F)ccc1OC(=O)N1CCOCC1 | -5.84
O=C(NCCCn1ccnc1)Nc1ccc2c(c1)OCO2 | 18.8
C(=N\N=C\c1ccccn1)/c1ccccn1 | 5.15
CCC1(CC)Cc2ccccc2-c2[nH]c(=S)[nH]c(=O)c21 | 7.03
O=C(OCC(=O)N1CCCC1=O)C1CCN(S(=O)(=O)c2ccc(Cl)c(C(F)(F)F)c2)CC1 | 12.7
O=C(CCC1CCCC1)N=C1SC2CS(=O)(=O)CC2N1c1ccccc1F (centres unmarked) | 6.62
CC(N=Cc1c(O)[nH]c(=O)[nH]c1=O)c1ccccc1 (centres unmarked) | 7.84
CC(=O)Nc1ccc(OCc2cccc3ccccc23)cc1 | 12.2
O=[N+]([O-])c1ccc2nc(NCCCO)nc(-c3ccccc3)c2c1 | 7.41
O=C(/C=C/c1ccc(Cl)cc1)Nc1ccc(CN2CCOCC2)cc1 | 1.34
O=C(c1ccc(N2CCN(S(=O)(=O)c3ccccc3)CC2)c([N+](=O)[O-])c1)N1CCOCC1 | 0.77
